# Laboratory results as given in the supplement of paper PMC3334620.
# In all, about 33,000 sequences were measured (“E-score (-0.5 to 0.5)”: median about -0.032, highest 2% from about 0.36 on). This is one part of the list.
# Biological target: T1, Sko1 (UniProt Q02100)
# T1 sequence: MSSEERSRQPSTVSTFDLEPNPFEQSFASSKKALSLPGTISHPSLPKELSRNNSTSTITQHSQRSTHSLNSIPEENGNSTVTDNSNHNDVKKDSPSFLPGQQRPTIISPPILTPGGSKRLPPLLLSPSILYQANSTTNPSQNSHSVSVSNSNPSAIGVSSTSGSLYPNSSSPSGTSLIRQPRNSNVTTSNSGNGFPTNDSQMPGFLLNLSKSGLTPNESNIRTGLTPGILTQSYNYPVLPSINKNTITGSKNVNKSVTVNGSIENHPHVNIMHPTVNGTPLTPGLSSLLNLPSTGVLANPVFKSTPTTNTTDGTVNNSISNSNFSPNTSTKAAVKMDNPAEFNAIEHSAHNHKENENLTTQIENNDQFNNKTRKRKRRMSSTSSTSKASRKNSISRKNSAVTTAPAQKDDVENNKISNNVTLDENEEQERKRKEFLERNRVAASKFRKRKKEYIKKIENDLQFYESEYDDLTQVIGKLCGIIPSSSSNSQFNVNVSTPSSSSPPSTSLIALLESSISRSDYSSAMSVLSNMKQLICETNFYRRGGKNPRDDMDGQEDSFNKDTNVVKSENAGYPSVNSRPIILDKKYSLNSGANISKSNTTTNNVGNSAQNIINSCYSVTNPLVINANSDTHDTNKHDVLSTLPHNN
# Assay: PBM E-score (8-mer binding enrichment) (E-score (-0.5 to 0.5)); higher = stronger / more preferred TF binding; most listed sequences are background and not binding sites
# Conditions: protein concentration: 200 nM; construct: GST-full length
# Method in brief: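 Masliner-normalised scans of fluorescent anti-GST signal were the basis for scoring. That signal came from GST-tagged yeast transcription factors applied at about 100-200 nM to double-stranded universal all-10-mer Agilent arrays on fresh or once-stripped slides. Each ungapped eight-base word, pooled with its reverse complement, received an E-score from the Universal PBM Analysis Suite.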
row,Sequence,PBM E-score
1,CTGGAAAA,0.0171
2,CGCTAGTC,-0.288
3,GGCAGAAA,0.0825
4,GTCCTCAC,-0.133
5,CTCGTCTA,0.0478
6,AAGTACAC,0.148
7,AAGCAATA,-0.188
8,ATAGGCCC,-0.358
9,AACGGCTA,0.0154
10,CGCACATA,-0.0226
11,CCAGGCCG,-0.114
12,AGAGAGCT,-0.304
13,CAAAAGGA,0.0715
14,AGTTGGGG,-0.0449
15,ATTCAAGA,0.0257
16,GACGAACA,0.162
17,GAAAACCA,-0.114
18,ATCGCATA,0.0698
19,ATGGGATA,-0.0824
20,ATCCAAAT,0.187
21,TGACTCAA,0.122
22,CCCTCTTC,-0.347

row,Sequence,PBM E-score
1,ATTCCCAA,0.0537
2,GCGGGCCC,-0.168
3,GGTCCTTA,-0.112
4,AGATTCCG,-0.043
5,ACTGCTCA,0.0233
6,ACATTAAC,0.126
7,CTCCTTAC,-0.0643
8,AGCGTCCT,-0.051
9,AGTTCCGC,-0.194
10,ACGAGGAT,0.099
11,GTTTTTCA,0.134
12,AGTTATAA,0.147
13,ATGTCGTG,0.239
14,CGCATGTA,0.0621
15,CGTACAAG,0.0998
16,CTAATTCA,0.125
17,ACTGTTAC,-0.0584
18,AAGCTCGA,0.0395
19,CAGTGAAA,0.163
20,ATGTCTGA,0.0983
21,ACCAAGCA,-0.0559
22,ACAGCCGG,-0.146

row,Sequence,PBM E-score
1,CATATTAA,0.174
2,CCATTTTC,0.163
3,AGTTATGC,0.0461
4,ACAGCACC,-0.136
5,ACCGCCTA,-0.197
6,GGTTTGGA,0.104
7,TAAGCACA,0.168
8,GTGAGGGA,-0.134
9,CGGGTCCC,-0.396
10,AATTCTGA,0.0665
11,GTCCTCAA,-0.126
12,CAACGTCG,0.222
13,GACGCGGA,-0.0051
14,ATGTGCTC,0.0491
15,ATCCCATG,-0.0929
16,ATACACTC,0.0972
17,CTCAAGGC,-0.334
18,ATCCAGCA,0.107
19,GGTCAGCA,-0.122
20,GCGTATAC,0.365
21,CCGCATAC,-0.0691
22,CGTTGTAC,0.208

row,Sequence,PBM E-score
1,AGGAGAAC,-0.173
2,ATGGAGTA,-0.1
3,ACACAAAG,0.0427
4,CAAATCAA,0.141
5,CCGCACAC,-0.185
6,CAAGTATG,0.0253
7,TCGAGCGA,0.0305
8,AGATCGGA,0.0328
9,CCTGATTA,0.0438
10,ACAGTACA,-0.0864
11,AATTGTCC,-0.0383
12,CCCGGGCC,-0.327
13,ATGTGGCG,-0.0276
14,GCCCTCGC,-0.222
15,GTGTATAA,-0.0223
16,CCGACTGA,-0.162
17,CACACTCA,0.137
18,CCGACGCC,-0.00118
19,AATAGGGT,-0.112
20,AGCCTCCC,-0.282
21,ATACACTA,0.0967
22,GAAGTCAA,0.0458

row,Sequence,PBM E-score
1,AGCCTTTC,-0.293
2,ATTCAACA,0.13
3,AATCCTTA,-0.0613
4,CCTTTAAC,-0.0213
5,CCCCCCCG,-0.334
6,ATTCGCGA,0.0843
7,ATAGTCAT,0.107
8,AAAAGCCT,-0.188
9,CACGCTCC,-0.17
10,CAGATATA,0.0956
11,CGAATCCG,0.00159
12,CTTGAGGC,-0.219
13,AACAGTAC,0.0808
14,ACGCTGGC,-0.0994
15,TTATGCAA,0.247
16,ATTGTACA,0.0552
17,AAGTACGC,0.193
18,GTGACAGA,-0.0286
19,ACTGAACG,-0.114
20,CGCCGGCA,-0.279
21,CAAAGGCC,-0.25
22,ACGGGCCA,-0.205
